# Out of some 73,000 compounds screened, about 1,800 (2.5%) were called active. The inconclusive results got no clear call from the source; some entries with a clear call stand among them for comparison. Calls come from the whole dose curve; as a rule, active = well fitted activation curve with a large enough effect; inconclusive = small, poorly fitted or top-dose-only effect; inactive = no such curve, though single readings can be large or run the other way. Potencies of inconclusive entries are left out as doubtful fits.
# Test: qHTS Assay for Agonists of the Thyroid Stimulating Hormone Receptor: Activators of Intracellular cAMP Concentrations in Parental HEK 293; note: nearly all actives have a fitted effect of over 55% in size; for activation: % of control where 0% means no effect
# Details: parental HEK293 CNG cAMP sensor, membrane potential fluorescence; activation: at 57.1 µM (top of the series) unless noted
# Outline: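 Counterscreen for endogenous-receptor signalling: CNG-channel HEK 293 cells report cAMP rise by membrane depolarization. After 60 min dye equilibration with 100 uM RO 20-1724, compounds incubated 30 min before bottom-read fluorescence at 590 nm.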
# Potency is the fitted concentration of half-maximal effect; tags give direction and shape of the fitted curve.
Structure (SMILES),activation,Potency
Nc1c(C(=O)NC2CCCC2)c2nc3ccccc3nc2n1N,inactive: 5.82%,
COc1ccc(S(=O)(=O)N[C@H](C(=O)N2CC[C@@]3(O)CCCC[C@H]3C2)c2ccccc2)cc1,,"inconclusive [activator, partial curve, poor fit]"
CCC(=O)Nc1ccc(F)c(Cl)c1,,"inconclusive [activator, single point]"
O=C(O)/C=C/C(=O)O,inactive: -9.6%,
O=C(c1csnn1)N1CCC[C@@]2(CCN(Cc3nccs3)C2)C1,,active: 3.98 µM
CCc1cc(=O)oc2cc(C)c3c(C)coc3c12,inactive: 11.9%,
Brc1ccc(-c2nn3c(-c4ccco4)nnc3s2)o1,inactive: 6.08%,
COC(=O)[C@@]1(Cc2ccc(F)cc2)[C@H]2c3cc(C(=O)N4CCCC4)n(Cc4ccc(C)o4)c3C[C@H]2CN1C(=O)c1ccccc1,,active: 31.6 µM
COc1ccccc1CNc1ncnc2ccc(-c3ccccc3C#N)cc12,,"inconclusive [activator, partial curve]"
COCCn1c(=O)c(-c2ccc(OC)cc2)nc2cnc(N3CCOCC3)nc21,inactive: 14.6%,
COc1ccc(NC(=O)CN(c2ccc(C)cc2)S(=O)(=O)c2c(C)nn(C)c2C)cc1OC,inactive: 0.514%,
O=C(CCN1CCOCC1)Nc1ccc2c(c1)CCC2,inactive: 9.52%,
COc1cc2c(cc1OC)C(C(=O)N1CCCCC1)C(c1ccccc1F)N(C)C2=O (stereo unspecified),,"inconclusive [activator, single point]"
Cc1cc(C)n(-c2nc3ccccc3c(=O)n2OCC(=O)Nc2c(C)cccc2C)n1,inactive: 26.6%,
Cc1cc(C)n(-c2ccc(C(=O)Nc3ccccc3N3CCOCC3)cc2)n1,,"inconclusive [activator, single point]"
Cn1c(CCN2CCN(c3ccccc3)CC2)nc2cc(NC(=O)c3ccco3)ccc21,,"inconclusive [activator, single point]"
Cn1c(Cn2c(=O)sc3ccccc32)nnc1SCC(=O)Nc1cccc(Cl)c1,,"inconclusive [activator, single point]"
CC(C)NC(=O)N1CCCC2(CCN(C(=O)c3cc(C(F)(F)F)cc(C(F)(F)F)c3)CC2)C1,inactive: 6.14%,
O=C(c1cccc(S(=O)(=O)N2CCCC2)c1)c1cccc(S(=O)(=O)N2CCCC2)c1,,"inconclusive [activator, partial curve]"
Cc1cc(C)n(CCc2nc3c4ccccc4nc(SCc4ccc(C#N)cc4)n3n2)n1,,"inconclusive [activator, full curve]"
CC1CCC(C(=O)O)([C@H](Br)C(=O)O)CC1 (stereo partly specified),inactive: 7.25% [at 11.4 µM],
Cn1ccnc1SCc1cn2cc(Br)ccc2n1,,"inconclusive [activator, single point]"
Clc1cc(Cl)c(Cl)c(Cl)c1Cl,inactive: 6.49%,
COC(=O)C/C=C\[C@@H](C)[C@@H](/C=N\OC[C@@H]1O[C@H](c2ccccc2)C=C[C@@H]1Oc1ccc(OC)cc1)OC,,"inconclusive [activator, single point]"

Structure (SMILES),activation,Potency
C=CCOc1c(CNc2nccs2)cccc1OCC,,"inconclusive [activator, full curve, poor fit]"
CCC(=O)Nc1ccc(C(=O)CSc2nnc(CNc3ccc(Cl)cc3)o2)cc1OC,,"inconclusive [activator, full curve]"
O=C1C2C3CCCC3=C3CCCC3C2C(=O)N1c1cccc(Cl)c1 (stereo unspecified),,"inconclusive [activator, single point]"
COc1ccc2[nH]cc(CCNc3nc(-c4ccccc4OC)nc4ccccc34)c2c1,inactive: -27.8%,
Cc1csc(NC(=O)C2CCCN(S(=O)(=O)c3ccc(Br)s3)C2)n1 (stereo unspecified),,"inconclusive [activator, partial curve]"
Oc1ccccc1-c1cc(-c2ccc3c(c2)OCCO3)n[nH]1,inactive: -0.142%,
CC(C)COC(=O)NCC12C=CC(O1)C1C(=O)N(c3ccc(Cl)cc3)C(=O)C12 (stereo unspecified),,"inconclusive [activator, partial curve]"
Cc1ccccc1NC(=O)CSc1nc(N)c(C#N)cc1C#N,,"inconclusive [activator, single point]"
CCC(=O)Nc1ccc(NC(=O)c2ccccn2)cn1,inactive: 1.13%,
CCCCS/C(=C(/C#N)C(N)=O)c1cc2c([nH]1)CCCC2,,active: 5.01 µM
CC1(C(=O)NC2CCCCCCC2)CCC(=O)N1Cc1ccco1 (stereo unspecified),,"inconclusive [activator, partial curve]"
CSc1nc(NCc2ccco2)c2c3c(sc2n1)CN(C)CC3,,active: 25.1 µM
Cc1ccc(-c2nc3ccccc3o2)cc1NC(=O)c1ccc2c(c1)OCO2,,"inconclusive [activator, partial curve]"
CN1CCN(c2ncc3nc(-c4cccc(C#N)c4)c(=O)n(C)c3n2)CC1,,"inconclusive [activator, single point]"
Cc1ccc(Cn2ncc3c(N4CCN(c5ccccc5C)CC4)ncnc32)cc1,inactive: 23.3%,
COc1ccc(OC)c(-n2nnnc2SCC(=O)Nc2ccc3c(c2)OCCO3)c1,,"inconclusive [activator, single point]"
CCOC(=O)c1c(C)nc2cc(C)ccn12,inconclusive: 50.3% [activator],
COC(=O)c1cccc(NC(=O)c2nn(C)c(=O)c3ccccc23)c1,,"inconclusive [activator, partial curve]"
COCC(=O)N1CCC2(CC1)CN(C(=O)Nc1ccccc1)C2,inactive: -1.65%,
COC(=O)Nc1ccc(S(=O)(=O)N2CCN(C)CC2)cc1,,"inconclusive [activator, single point]"
COC(=O)[C@@]1(Cc2ccc(OC)cc2)[C@H]2c3cc(C(=O)N4CCCC4)n(Cc4ccc(S(C)(=O)=O)cc4)c3C[C@H]2CN1C(=O)c1ccccc1,,active: 20 µM
COc1cc(C2CC(=O)N3CN(c4ccccc4C)CSC3=C2C#N)cc(OC)c1OC (stereo unspecified),inactive: -11.1%,
CCn1c(SCc2ccccc2)nnc1-c1cccs1,,"inconclusive [activator, single point]"
Cc1c(N=CC=Nc2c(C)n(C)n(-c3ccccc3)c2=O)c(=O)n(-c2ccccc2)n1C,inactive: -1.86% [at 11.4 µM],

Structure (SMILES),activation,Potency
O=C(c1ccco1)n1nc(NCc2ccccc2)nc1NCc1ccccc1,,"inconclusive [activator, full curve, poor fit]"
CCOC(=O)c1sc2ncnc(N3CCN(C(=O)OCC)CC3)c2c1C,,"inconclusive [activator, single point]"
COc1cc(OC)cc(C(=O)Nc2cccc(C(C)=O)c2)c1,inactive: 5.34%,
CCOC(=O)c1sc(NC(NC(=O)c2ccco2)(C(=O)OC)C(F)(F)F)nc1C (stereo unspecified),,"inconclusive [activator, full curve]"
Cn1c(Cc2ccccc2)nnc1SCC(=O)Nc1ccc2c(c1)OCO2,,"inconclusive [activator, partial curve]"
CCOC(=O)C1=C(C)NC(SCC(=O)OC)=C(C#N)C1c1ccc(C(=O)OC)cc1 (stereo unspecified),,"inconclusive [activator, partial curve]"
Cn1c(=O)cc(N2CCc3ccccc32)[nH]c1=O,,"inconclusive [activator, single point]"
Cc1cccc2cc(CN(Cc3ccc(F)cc3)C(=O)N(C)C)c3nnnn3c12,,"inconclusive [activator, partial curve]"
Cc1cc(NC(=O)CC(CN(C)S(=O)(=O)c2ccccc2)c2ccccc2)no1 (stereo unspecified),,"inconclusive [activator, partial curve]"
CCCCn1c2c(c3ccccc31)CCc1nonc1-2,,"inconclusive [activator, partial curve]"
Cc1cc(NS(=O)(=O)c2ccc(-c3ccccc3)cc2)no1,,"inconclusive [activator, partial curve, poor fit]"
COc1ccc(N(C(=O)CNC(=O)c2ccco2)C(C(=O)NC2CCCCC2)c2ccco2)cc1 (stereo unspecified),,"inconclusive [activator, single point]"
Cc1cc(Cl)ccc1NC(=O)CSc1nnc(Cc2cccs2)n1Cc1ccco1,,"inconclusive [activator, partial curve]"
Cc1nnc2n(-c3ccc(Cl)cc3)c(=O)c3c4c(sc3n12)CN(C)CC4,,"inconclusive [activator, single point]"
O=c1oc2ccccc2c(O)c1/C=N/c1nc(-c2ccc(O)c(O)c2)cs1,inactive: 4.35% [at 11.4 µM],
COC(=O)C/C=C\[C@@H](C)[C@H]1C=C[C@H](O)[C@@H](CO)O1,inactive: -4.08% [at 11.4 µM],
CCOC(=O)C1=C(C)OC(N)=C(C#N)C1C1CCCCC1 (stereo unspecified),,active: 25.1 µM
C[C@@H](COc1ccc(/C=C\c2ccccc2)cc1)[N+](C)(C)C,inactive: 14%,
Fc1cccc(Cl)c1CSc1nnnn1-c1ccc2c(c1)OCO2,,"inconclusive [activator, single point]"
C=CC(=O)OCCOCCOC(=O)C=C,inactive: 23.1%,
O=C(Nc1ccc2c(c1)CCC2)C1COc2ccccc2O1 (stereo unspecified),,"inconclusive [activator, single point]"
Cc1[nH]c2ccccc2c1CC(=O)O,inactive: 1.43%,
Cc1ccc2cc(CN(Cc3ccco3)C(=O)c3ccccc3)c(=O)[nH]c2c1C,,"inconclusive [activator, single point]"
